Measured values: PubChem BioAssay AID651820 (National Center for Advancing Translational Sciences (NCATS), 2012)
Values joined by “and” are separate entries in the source; they are usually repeats but may differ in a detail not shown here. Equal values may be shown once. Among all 340,000 compounds or so, about 12,000 (3.5%) were called active. Inconclusive results, whose numbers are uncertain, are shown with a selection of clear calls. Calls follow the shape of the dose curve; as a rule, active = well fitted inhibition curve with a large enough effect; inconclusive = small, poorly fitted or top-dose-only effect, or another doubt; inactive = no such curve, though single readings can be large or run the other way. A potency beside an inconclusive call is a rough fit, not a confirmed value.

Test: qHTS Assay for Inhibitors of Hepatitis C Virus (HCV)
Conditions: Huh7.5.1 HCVcc-Cre (HCVcc is cell-culture hepatitis C virus) infection, luciferase reporter, 44 h; activity change, negative = inhibition: at 41.8 µM (top of the series) unless noted
In short: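 1,000 cells/well; 4 h culture; + compound; + HCVcc-Cre (~0.5 moi); 44 h; luciferase substrate, RT 15 min; read 15 sec.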
% is scaled to controls: 0 for no effect and ±100 for the full control effect; potency is read from the fitted curve at half-maximal effect; tags tell the direction and shape of the fitted curve.

Row | Structure (SMILES) | Potency | activity change, negative = inhibition
1 | CC(C)Nc1nc(SCC(=O)Nc2ccccc2)nc(N2CCOCC2)n1 | inconclusive: 2.51 µM [inhibitor, full curve, poor fit] | 
2 | CC(C)(C)c1ccc(C(=O)NCCCNC(=O)c2ccco2)cc1 | inactive | 
3 | CCOc1cc(CN2CCN(S(=O)(=O)Cc3ccccc3)CC2)ccc1OC | inconclusive: 5.62 µM [inhibitor, full curve] | 
4 | O=c1cc(-c2ccccc2)c2ccc(O)c(CN3CCCCC3)c2o1 | inactive | 
5 | CSc1nnc(C)c(/C=C/NOCc2cccc(F)c2)n1 | inconclusive: 31.6 µM [inhibitor, single point] | 
6 | Cc1cccc(C)c1-n1nnnc1C1(Nc2ccccc2)CCCCC1 | inconclusive: 31.6 µM [inhibitor, single point] | 
7 | Brc1ccc2ncnc(Nc3cccc4ccccc34)c2c1 | inconclusive: 31.6 µM [inhibitor, single point] | 
8 | COc1ccc(CCNC(=O)Cn2cccc2C(=O)c2ccccc2C)cc1OC | inconclusive: 12.6 µM [inhibitor, single point] | 
9 | O=C(Nc1ccc(C(=O)N2CCOCC2)cc1)C1CC1 | inactive | 
10 | CCC(CC)C(=O)Nc1nc(-c2ccc3c(c2)CCN3C(=O)C2CC2)c(C)s1 | inconclusive: 35.5 µM [inhibitor, partial curve, poor fit] | 
11 | C=CCOc1ccc(C2NC(=S)NC(C)=C2C(=O)c2ccccc2)cc1OC (stereo not drawn) | inconclusive: 31.6 µM [inhibitor, single point] | 
12 | CN(C)CCNc1ncnc2oc(-c3ccccc3)c(-c3ccccc3)c12 | active: 3.16 µM | 
13 | COc1ccc2oc3ccccc3c(=O)c2c1 |  | inactive: -7.59% [at 8.37 µM]
14 | O=C(CCN1CCc2ccccc2C1)Nc1ccc(F)c(F)c1 | inconclusive: 31.6 µM [inhibitor, single point] | 
15 | Nc1c(Cl)cc(-c2csc(N3CCCC3c3nc4cc(Cl)c(Cl)cc4n3CCCO)n2)cc1Cl (stereo not drawn) | active: 2 µM | 
16 | O=C(Nc1ccc(Cl)cn1)c1ccc(-c2ccc(Cl)c(Cl)c2)o1 | inactive | 
17 | N=c1c(S(=O)(=O)c2ccc(F)cc2)cc2c(=O)n3ccccc3nc2n1CC1CCCO1 (stereo not drawn) | inconclusive: 5.01 µM [inhibitor, partial curve] | 
18 | COCCn1c(-c2cc(OC)c(OC)c(OC)c2)nc2oc3ccccc3c(=O)c2c1=O | inconclusive: 31.6 µM [inhibitor, single point] | 
19 | O=C(NCc1ccccc1)c1cccn(Cc2cccc(Cl)c2)c1=O | inconclusive: 12.6 µM [inhibitor, single point] | 
20 | CC(C)(C)c1ccc(CSc2cnn(C(C)(C)C)c(=O)c2Cl)cc1 | inconclusive: 3.98 µM [inhibitor, full curve, poor fit] | 
21 | COc1ccccc1COCC(O)CNCCc1ccc(C(F)(F)F)cc1 (stereo not drawn) | inconclusive: 15.8 µM [inhibitor, single point] | 
22 | CCOc1ccc(NC(=O)CN2C(=O)CSC(C)C2=O)cc1 (stereo not drawn) | inconclusive: 31.6 µM [inhibitor, single point] | 

Row | Structure (SMILES) | Potency | activity change, negative = inhibition
23 | CCOc1ccc2nc(N3C(=O)C(O)=C(C(=O)c4ccco4)C3c3ccco3)sc2c1 (stereo not drawn) | inactive | 
24 | Cc1ccc(CNC(=O)c2ccc(N3CCC4(CC3)CC(c3ccccc3)=NO4)c(NC(=O)c3ccco3)c2)cc1 | inconclusive: 2.24 µM [inhibitor, full curve] | 
25 | Cc1ccc(S(=O)(=O)Nc2cccc(-c3ccc(N4CCCCCC4)nn3)c2)cc1C | inconclusive: 28.2 µM [inhibitor, single point] | 
26 | CCn1c(=O)c([N+](=O)[O-])c(NCc2ccc3c(c2)OCO3)c2ccccc21 | inconclusive: 31.6 µM [inhibitor, single point] | 
27 | C/C(=N\NC(=S)NC(C)C)c1ccc(Cl)c([N+](=O)[O-])c1 | inconclusive: 31.6 µM [inhibitor, single point] | 
28 | Cc1nc(N2CCN(S(=O)(=O)c3ccccc3C#N)CC2)c2c(-c3cccs3)csc2n1 | active: 10 µM | 
29 | O=C(CNC(=S)NC(=O)c1ccccc1)c1ccccc1 | inactive | 
30 | Cc1ccc(C2=NN(C(=O)CCCC(=O)O)C(c3ccco3)C2)cc1 (stereo not drawn) | inactive | 
31 | COc1ccc(C(C(O)C(=O)c2c[nH]c3ccccc23)N2CCN(c3ccccc3)CC2)cc1 (stereo not drawn) | inconclusive: 31.6 µM [inhibitor, partial curve, poor fit] and inconclusive: 31.6 µM [inhibitor, single point] | 
32 | Cc1ccc(OCCCCn2ccnc2)c([N+](=O)[O-])c1 | inconclusive: 31.6 µM [inhibitor, single point] | 
33 | Cc1ccccc1NC(=O)c1cccc(S(=O)(=O)N2CCCCC2)c1 | inactive | 
34 | COc1ccc(NC(=O)c2c(-c3c(Cl)cccc3Cl)noc2C)cn1 | inactive | 
35 | O=[N+]([O-])c1ccc2sc(SCc3nc4ccccn4c3Br)nc2c1 | inactive | 
36 | O=S(=O)(c1ccccc1)c1cnn(-c2ccccc2)c1-c1ccc(Cl)cc1 | inconclusive: 31.6 µM [inhibitor, single point] | 
37 | CCC(C(=O)N1CCN(C(=O)c2ccco2)CC1)n1sc2ccccc2c1=O (stereo not drawn) | inconclusive: 22.4 µM [inhibitor, single point] | 
38 | O=C(Nc1sc2c(c1C(=O)O)CCCCC2)c1ccccc1 | inconclusive: 20 µM [inhibitor, single point] | 
39 | CCn1c(=O)cc(SCC(=O)Nc2cccc(SC)c2)c2ccccc21 | inconclusive: 1.58 µM [inhibitor, full curve] | 
40 | Cc1cccc(N2CCN(C(=O)COc3ccc4c(c3)CCC4)CC2)c1C | inconclusive: 3.55 µM [inhibitor, full curve] | 
41 | COc1cccc(CC(=O)Nc2ccc(F)c(S(=O)(=O)N3CCOCC3)c2)c1 | inconclusive: 31.6 µM [inhibitor, single point] | 
42 | CC1CN(S(=O)(=O)c2cccc(C(=O)N=c3sccn3C)c2)CC(C)O1 (stereo not drawn) | inconclusive: 12.6 µM [inhibitor, single point] | 
43 | COc1ccc(OC)c2sc(N3CCN(C(=O)c4ccc5ncsc5c4)CC3)nc12 | inconclusive: 25.1 µM [inhibitor, single point] | 
